Test results published in PubChem BioAssay AID624417 (National Center for Advancing Translational Sciences (NCATS), 2012).
Among all 410,000 compounds or so, about 6,400 (1.6%) were called active. The inconclusive results got no clear call from the source; some entries with a clear call stand among them for comparison. Calls come from the whole dose curve; as a rule, active = well fitted inhibition curve with a large enough effect; inconclusive = small, poorly fitted or top-dose-only effect; inactive = no such curve, though single readings can be large or run the other way. Potencies beside an inconclusive call are fits to weak or partial responses and may not hold up.

Each compound was assayed against Glucagon-like peptide 1 receptor (Homo sapiens) (UniProt P43220) (assay: qHTS of GLP-1 Receptor Inverse Agonists (Inhibition Mode)). Conditions: HEK293 GLP-1R CRE-luciferase, luminescence, 24 h, GLP-1R form is constitutively active; activity change, negative = inhibition: at 38.3 µM (top of the series) unless noted.
Procedure, shortened: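 Using stably transfected HEK293 (constitutively active GLP-1R, cAMP-luciferase reporter), compounds were incubated 24 hr and luciferase measured by luminescence.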
% is set by controls: 0 for no effect and ±100 for the full control effect; potency is the fitted concentration of half-maximal effect; tags give direction and shape of the fitted curve.
Note: nearly all actives have a fitted effect of over 55% in size.

UniProt P43220, sequence (P43220 whole entry, looked up): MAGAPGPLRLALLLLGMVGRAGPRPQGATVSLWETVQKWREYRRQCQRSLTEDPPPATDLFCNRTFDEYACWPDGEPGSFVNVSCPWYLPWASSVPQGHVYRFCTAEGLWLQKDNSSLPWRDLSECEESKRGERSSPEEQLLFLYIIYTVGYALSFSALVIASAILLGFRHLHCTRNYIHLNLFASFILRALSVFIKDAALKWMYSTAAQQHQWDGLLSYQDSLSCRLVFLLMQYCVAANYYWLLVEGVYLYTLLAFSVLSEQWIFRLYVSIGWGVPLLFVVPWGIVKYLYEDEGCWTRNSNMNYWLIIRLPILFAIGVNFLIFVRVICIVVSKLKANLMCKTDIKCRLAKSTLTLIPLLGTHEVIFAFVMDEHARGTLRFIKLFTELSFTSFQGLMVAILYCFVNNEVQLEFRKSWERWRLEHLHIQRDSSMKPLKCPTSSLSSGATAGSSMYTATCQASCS

Potency, inconclusive:
COC(=O)c1sccc1-c1ccc(C(=O)Nc2cccc(Cl)c2)o1 28.2 µM [inhibitor, single point]
COc1ccc(-c2nc(Cn3c(SCc4cccc(F)c4)nc4ccncc43)c(C)o2)cc1OC 28.2 µM [inhibitor, single point]
CC(C)Oc1ccc(CNC(=O)CCC(=O)N2CC(C)Sc3ccccc32)cc1 (configuration not stated) 11.2 µM [inhibitor, partial curve, poor fit]
CCn1c(SCc2ccccc2C)nc(=O)c2c(C(=O)OC)cc(C3CC3)nc21 28.2 µM [inhibitor, single point]
Cc1ccccc1-c1cc(C(=O)NCC2CC2)nn1CC1CC(c2cccc([N+](=O)[O-])c2)=NO1 (configuration not stated) 28.2 µM [inhibitor, single point]
OCCCn1c(CCNc2nc(-c3ccc(Cl)cc3)cs2)nc2cc(C(F)(F)F)ccc21 11.2 µM [inhibitor, partial curve, poor fit]
CN(CC(=O)NCc1ccc(Cl)cc1)S(=O)(=O)c1ccc2[nH]c3c(c2c1)CCCC3 28.2 µM [inhibitor, single point]
c1ccc(-c2sc3ccccc3c2-c2ccc(OCCN3CCCCC3)cc2)cc1 11.2 µM [inhibitor, partial curve, poor fit]
Cc1cccc(N2CCN(C(=O)CCS(=O)(=O)c3ccc4c(c3)NC(=O)C(C)S4)CC2)c1C (configuration not stated) 2 µM [inhibitor, full curve, poor fit]
Cc1ccc(NC(=S)NCCc2c[nH]c3ccccc23)cc1 10 µM [inhibitor, partial curve, poor fit]
COc1ccc(NC(=O)CCS(=O)(=O)c2nc(-c3cccs3)cc(C(F)(F)F)n2)cc1 11.2 µM [inhibitor, single point]
COc1cc(Cn2c3ccc(NC(=O)CC(C)c4ccccc4)cc3c(=O)n2C)ccc1F (configuration not stated) 28.2 µM [inhibitor, single point]
CCOc1ccc(C(=O)CN2CCN(S(=O)(=O)c3ccc(Cl)cc3)CC2)cc1 28.2 µM [inhibitor, single point]
Cn1c(COc2ccccc2)nnc1SCc1cc(=O)[nH]c2ccccc12 0.794 µM [inhibitor, full curve, poor fit]
Cc1cc(SCC(=O)N(C)C2CCCCC2)nc2ccccc12 14.1 µM [inhibitor, partial curve, poor fit]
CCOC(=O)/C=C/C(=O)Nc1cccc([N+](=O)[O-])c1 12.6 µM [inhibitor, partial curve, poor fit]
O=C(Nc1cccc(C(F)(F)F)c1)C1CC(=O)N(CCc2ccccc2)C1 (configuration not stated) 15.8 µM [inhibitor, single point]
O=C(c1cc(Br)ccc1O)N1CCN(S(=O)(=O)Cc2ccccc2)CC1 12.6 µM [inhibitor, partial curve, poor fit]
COc1ccccc1N1CCN(C(=O)c2cnn(-c3cccc(Cl)c3)c2C2CCN(C(=O)OC(C)(C)C)CC2)CC1 20 µM [inhibitor, single point]
CC(C)CC(NC(N)=O)C(=O)Nc1ccc(Oc2ccccc2)cc1 (configuration not stated) 28.2 µM [inhibitor, single point]
O=C(Nc1ccncc1)C1CCN(S(=O)(=O)c2ccc(Cl)cc2)CC1 10 µM [inhibitor, partial curve, poor fit]
CCc1ccccc1NC(=O)c1cc(S(=O)(=O)N2CCc3ccccc32)ccc1F 14.1 µM [inhibitor, partial curve, poor fit]
Cc1ccc(C2=NS(=O)(=O)N(C)C(C(=O)NC(C)c3ccccc3)=C2)cc1 (configuration not stated) 10 µM [inhibitor, partial curve]
OC[C@@H]1CN(Cc2cccc(C(F)(F)F)c2)C[C@H](n2cnc3c(NCc4ccc(F)cc4)ncnc32)O1 11.2 µM [inhibitor, partial curve, poor fit]
Cc1cccc(N2CCN(C(=O)c3cccs3)CC2)c1C 1.58 µM [inhibitor, partial curve, poor fit]
COc1cc(-c2nc(SCC(=O)Nc3ccc(C)cc3)c(-c3ccc(F)cc3)[nH]2)cc(OC)c1OC 10 µM [inhibitor, partial curve, poor fit]
Cc1ccc(CSCCNC(=O)CSc2ccccc2)cc1 2.82 µM [inhibitor, single point]
CCC(=O)c1ccc(OCC(O)CNCCc2ccc(Cl)cc2)cc1 (configuration not stated) 28.2 µM [inhibitor, single point]
Cc1cc(Cl)ccc1NC(=S)NCC(C)C 28.2 µM [inhibitor, single point]
COCCNC(=O)C(OC(=O)C1=Cc2ccccc2OC1)C(C)C (configuration not stated) 31.6 µM [inhibitor, partial curve, poor fit]
CC(C)CNC(=O)C1(C)CCCN1C(=O)C(C)(C)Oc1ccc(Cl)cc1 (configuration not stated) 28.2 µM [inhibitor, single point]
CCOCCCNC(=S)Nc1ccc(Br)cc1Cl 28.2 µM [inhibitor, single point]
COC(=O)CSc1nc(SCc2ccccc2Cl)nc2c1CCCC2 11.2 µM [inhibitor, partial curve, poor fit]
COc1ccc(-c2ccc(C(=O)Nc3cccc(C(C)=O)c3)c3occc23)c(C)c1 28.2 µM [inhibitor, single point]
COc1cc(N2CCCC2)c(OC)cc1/C=C(/C#N)c1ccc(Br)cc1 10 µM [inhibitor, partial curve, poor fit]
CCc1nc(SC)ncc1C(=O)N1CCN(c2cc(Cl)ccc2C)CC1 11.2 µM [inhibitor, partial curve, poor fit]
N#Cc1c(N)sc(=S)c2c1CCCCC2 28.2 µM [inhibitor, single point]
Nc1ccc(NC(=O)c2cccc(C(=O)Nc3ccc(N)cc3Cl)c2)c(Cl)c1 3.98 µM [inhibitor, partial curve]
CCC(c1ccccc1)c1nc(-c2cccnc2)no1 (configuration not stated) 11.2 µM [inhibitor, single point]
COc1ccc(C(=O)c2sc(Nc3ccccc3)nc2C)cc1 10 µM [inhibitor, partial curve, poor fit]
CC(C)(C)C(=O)[C@@H]1[C@@H]2C(=O)N(C3CCCCC3)C(=O)[C@@H]2[C@H]2c3ccccc3C=CN12 8.91 µM [inhibitor, partial curve, poor fit]
CC(C)(C)c1ccc(/C=N/NC(=O)Cc2c[nH]c3ccccc23)cc1 5.62 µM [inhibitor, full curve, poor fit]
CCOC(=O)N1CCN(S(=O)(=O)c2ccc(C(=O)NNc3nc4cc(C)cc(C)c4s3)cc2)CC1 28.2 µM [inhibitor, single point]
CC(=O)N1CCc2c(sc3nc(SCC(C)C)n(-c4ccc(C)c(Cl)c4)c(=O)c23)C1 28.2 µM [inhibitor, single point]
O=C(NCCN1CCOCC1)c1ccc2c(c1)N(Cc1ccccc1)C(=O)c1ccccc1S2 10 µM [inhibitor, partial curve, poor fit]
O=S1(=O)N=C(N(Cc2cccs2)c2ccc(O)cc2)c2ccccc21 8.91 µM [inhibitor, partial curve, poor fit]

Potency, active:
Cn1nc(-c2ccccn2)nc2c(=O)n(C)c(=O)nc1-2 3.16 µM
CCC(C)(C)NC(=O)CSc1nc(Cc2ccccc2)nc2ccccc12 4.47 µM
Cc1ccc(NC(=O)C2(NC(=O)c3cccc(N4C(=O)CSC4c4ccccc4)c3)CCCCC2)cc1 (configuration not stated) 6.31 µM
COC(=O)c1ccc(C2c3[nH]c4ccccc4c3C[C@H]3C(=O)N(C4CCN(Cc5ccccc5)CC4)CC(=O)N23)cc1 (some centres not stated) 10 µM

Activity change, negative = inhibition, inactive:
O=C(Nc1nnc(-c2cc(Cl)ccc2Cl)o1)C1=COCCO1 3.31%
CC(=O)Nc1cccc(-c2cc3nc(NCc4cccnc4)n(C)c(=O)c3s2)c1 24.8%
CCN(CC)C(=O)C1=C(C)N(CCCOC)C(=O)C(CC(=O)NCc2ccco2)C1 (configuration not stated) 15.3%
Cc1ccccc1CNC(=O)C1=Cc2ccccc2OC1 -23%
CCCn1c2ccccc2c2cnn(CC(=O)NCC3CCN(Cc4ccc(F)cc4)CC3)c(=O)c21 -13%
CCNc1ccc(S(=O)(=O)N(C)C)cc1[N+](=O)[O-] 31.7%
CCCc1cc(=O)oc2cc(C)cc(OCC(=O)N3CCC(C(N)=O)CC3)c12 -13.1%
Cc1ccc(S(=O)(=O)NC(CC(C)C)C(=O)N2CC(C)OC(C)C2)cc1 (configuration not stated) -7.77%
CCCCn1c(=N)c(S(=O)(=O)c2ccc(C)cc2)cc2c(=O)n3cc(C)ccc3nc21 3.14%
CCc1nn2c(=O)cc(COC(=O)c3ccc(NC(=O)CCc4ccccc4)cc3)nc2s1 12.3%
Cc1ccccc1CN1C(=O)c2ccccc2C1c1nnnn1C(C)C (configuration not stated) 1.56%
Cc1cc(=O)n(C(C)C(=O)N2CCCc3ccccc32)c2c1c(C)nn2-c1ccccc1 (configuration not stated) 1.68%
